These results are taken from patent publication US20200140562A1 (Innovent, published 2020).

As a reminder, the Kd is the concentration at which binding is half-saturated. High values mean a looser complex, low ones a tighter complex.

Assay [1] concerns the target T1, human OX40 on cells (CHO-hOX40, 293HEK-hOX40, Jurkat-hOX40, activated primary CD4+ T cells) (human, UniProt P43489 29-277).
T1 construct: whole, on cells; The cell type is told in each assay; also called CHO-OX40
T1 sequence (looked up): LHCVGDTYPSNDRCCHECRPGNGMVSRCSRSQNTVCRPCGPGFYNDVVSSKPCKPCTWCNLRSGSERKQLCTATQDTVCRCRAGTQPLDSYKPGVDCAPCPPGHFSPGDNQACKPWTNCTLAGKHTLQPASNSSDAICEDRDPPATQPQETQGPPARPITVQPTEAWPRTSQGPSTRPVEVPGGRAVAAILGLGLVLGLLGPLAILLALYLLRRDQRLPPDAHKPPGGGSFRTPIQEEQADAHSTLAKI
The assay can be described thus: flow cytometry, CHO-hOX40, 200 nM.

The target of assay [2] is T2, cyno OX40_Fc (Acro Biosystems) (cyno).
T2 construct: Bought
Nature of the assay: BLI, IgG1 on tip, cyno OX40-Fc 100 nM, avid. On the technique in general: Biolayer interferometry detects binding as a change in optical thickness at a sensor tip.

Assay [3] addresses T1, human OX40 on cells (CHO-hOX40, …). The assay can be described thus: flow cytometry, CHO-hOX40, 100 nM.
In assay [4] the target is T3, mouse OX40Fc (Acro Biosystems) (mouse, UniProt P47741 20-211, limits assumed).
T3 construct: Bought; not shown: Fc
T3 sequence (looked up): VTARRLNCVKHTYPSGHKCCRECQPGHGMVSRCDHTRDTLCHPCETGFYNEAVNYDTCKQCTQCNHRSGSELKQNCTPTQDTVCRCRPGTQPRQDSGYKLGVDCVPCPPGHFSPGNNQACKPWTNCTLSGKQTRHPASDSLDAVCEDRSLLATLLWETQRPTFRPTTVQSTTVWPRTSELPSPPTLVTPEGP
The assay can be described thus: BLI, IgG1 on tip, mouse OX40-Fc in solution.

Assay [5] has as its target T1, human OX40 on cells (CHO-hOX40, …). Nature of the assay: flow cytometry, CHO-hOX40, 25 nM. Background: A flow cytometer gives signals particle by particle.
Assay [6] shares this target. The assay can be described thus: flow cytometry, 293HEK-hOX40, 200 nM.
Assay [7] has the same target. Nature of the assay: flow cytometry, 293HEK-hOX40, 40 nM.
Assay [8] shares this target. The assay can be described thus: flow cytometry, activated CD4+ T cells, donor 1, 100 nM.
The target of assay [9] is T3, mouse OX40Fc (Acro Biosystems). Nature of the assay: BLI, IgG1 on tip, mouse OX40-Fc in solution. The source holds these as a separate data set.
For assay [10], the target named is T1, human OX40 on cells (CHO-hOX40, …). Nature of the assay: flow cytometry, CHO-hOX40, 100 nM. The source holds these as a separate data set.
For assay [11] the target is unchanged. Nature of the assay: flow cytometry, MFI on CHO-hOX40 over wild-type CHO.
Assay [12] deals with T2, cyno OX40_Fc (Acro Biosystems). The assay can be described thus: BLI, IgG1 on tip, cyno OX40-Fc 100 nM, avid. This is another data set of the same source.
In assay [13] the target is T4, human OX40_Fc (R&D Systems) (human, UniProt P43489 29-216).
T4 construct: Bought
Nature of the assay: BLI, IgG1 on tip, hOX40-Fc 50 nM, avid.

Read-outs that look alike come from different tables or passages of the source.

B1: ADI-20051, IgG1 format (antibody)
heavy: QVQLQQWGAGLLKPSETLSLTCAVYGGSFSGYYWSWIRQPPGKGLEWIGEIDHSGSTNYNPSLKSRVTISVDTSKNQFSLKLSSVTAADTAVYYCARDGGGGYASPFDYWGQGTLVTVSS[human IgG1 constant region cut from this listing]
light: EIVMTQSPATLSVSPGERATLSCRASQSVSSNLAWYQQKPGQAPRLLIYGASTRATGIPARFSGSGSGTEFTLTISSLQSEDFAVYYCQQYHAWPPTFGGGTKVEIKRTVAAPSVFIFPPSDEQLKSGTASVVCLLNNFYPREAKVQWKVDNALQSGNSQESVTEQDSKDSTYSLSSTLTLSKADYEKHKVYACEVTHQGLSSPVTKSFNRGEC
notes: Made in yeast or 293HEK cells, depending on the assay
With B1, the MFI is 3.89e+06 MFI in [1]; 4.35e+06 MFI in [3]; 3.89e+06 MFI in assay [5]; 2.47e+06 MFI in [6]; 2.39e+06 MFI in assay [7]; 141000 MFI in assay [8]. The Kd in assay [2] came out at 11.8 nM. Besides, the binding result in assay [4] is on record as “no binding (tested: 100 nM)”.

B2: ADI-20118, IgG1 format (antibody)
heavy: QVQLVQSGAEVKKPGASVKVSCKASGYTFTSYAISWVRQAPGQGLEWMGWISAYNGNTNYAQKLQGRVTMTTDTSTSTAYMELRSLRSDDTAVYYCARSGGGSGPNWFDPWGQGTLVTVSS[human IgG1 constant region cut from this listing]
light: DIQMTQSPSSLSASVGDRVTITCQASQDISNYLNWYQQKPGKAPKLLIYDASNLETGVPSRFSGSGSGTDFTFTISSLQPEDIATYYCQQPATLPWTFGGGTKVEIKRTVAAPSVFIFPPSDEQLKSGTASVVCLLNNFYPREAKVQWKVDNALQSGNSQESVTEQDSKDSTYSLSSTLTLSKADYEKHKVYACEVTHQGLSSPVTKSFNRGEC
notes: as for B1
B2: the MFI in assay [1] is 3.89e+06 MFI; in assay [3], 3.83e+06 MFI; in assay [5], 3.4e+06 MFI; in [6], 1.73e+06 MFI; in assay [7] it was 1.98e+06 MFI; in [8], 78600 MFI. Moreover, binding in assay [2] was characterised by a dissociation constant (Kd) of 11.4 nM. In assay [4], the binding result is on record as “no binding (tested: 100 nM)”.

B3: ADI-20112, IgG1 format (antibody)
heavy: QVQLVESGGGVVQPGRSLRLSCAASGFTFSSYGMHWVRQAPGKGLEWVAVISYDGSNKYYADSVKGRFTISRDNSKNTLYLQMNSLRAEDTAVYYCARGRPWYSETGTSAFDIWGQGTMVTVSS[human IgG1 constant region cut from this listing]
light: DIQMTQSPSSLSASVGDRVTITCQASQDISNYLNWYQQKPGKAPKLLIYDASNLETGVPSRFSGSGSGTDFTFTISSLQPEDIATYYCQQSDHYPTFGGGTKVEIKRTVAAPSVFIFPPSDEQLKSGTASVVCLLNNFYPREAKVQWKVDNALQSGNSQESVTEQDSKDSTYSLSSTLTLSKADYEKHKVYACEVTHQGLSSPVTKSFNRGEC
notes: Made in yeast, 293HEK or CHO cells, depending on the assay; also called ADI-20112-g1
Regarding B3, in [9], the binding result is given as “no binding (tested: 100 nM)”. The MFI in [1] is 3.97e+06 MFI; in [3], 3.82e+06 MFI; in assay [5], 3.86e+06 MFI; in [6], 2.31e+06 MFI; in [7], 1.92e+06 MFI; in assay [8] it was 100000 MFI. Besides, the “CHO-OX40 binding intensity (MFI)” value in assay [10] was found to be 244000 MFI. Further, the Kd in assay [2] came out at 5.98 nM; in [12], 6.82 nM; in assay [13], 0.775 nM. For the same molecule, in assay [11], the Fold difference turned out to be 2080 fold.
